Assay results: publication PMC4336329 (PLoS ONE, 2015)
Screen size: about 310,000 compounds; about 2,200 (0.71%) showed an effect of 50% or more. Effects have a minus sign here. Some of the results follow.

What follows are compounds tested against human ether-à-go-go-related gene (hERG) potassium channel (human, UniProt Q12809) (assay: primary screen, population patch clamp on CHO cells stably expressing hERG).
human ether-à-go-go-related gene (hERG) potassium channel, sequence (Q12809 whole entry, looked up): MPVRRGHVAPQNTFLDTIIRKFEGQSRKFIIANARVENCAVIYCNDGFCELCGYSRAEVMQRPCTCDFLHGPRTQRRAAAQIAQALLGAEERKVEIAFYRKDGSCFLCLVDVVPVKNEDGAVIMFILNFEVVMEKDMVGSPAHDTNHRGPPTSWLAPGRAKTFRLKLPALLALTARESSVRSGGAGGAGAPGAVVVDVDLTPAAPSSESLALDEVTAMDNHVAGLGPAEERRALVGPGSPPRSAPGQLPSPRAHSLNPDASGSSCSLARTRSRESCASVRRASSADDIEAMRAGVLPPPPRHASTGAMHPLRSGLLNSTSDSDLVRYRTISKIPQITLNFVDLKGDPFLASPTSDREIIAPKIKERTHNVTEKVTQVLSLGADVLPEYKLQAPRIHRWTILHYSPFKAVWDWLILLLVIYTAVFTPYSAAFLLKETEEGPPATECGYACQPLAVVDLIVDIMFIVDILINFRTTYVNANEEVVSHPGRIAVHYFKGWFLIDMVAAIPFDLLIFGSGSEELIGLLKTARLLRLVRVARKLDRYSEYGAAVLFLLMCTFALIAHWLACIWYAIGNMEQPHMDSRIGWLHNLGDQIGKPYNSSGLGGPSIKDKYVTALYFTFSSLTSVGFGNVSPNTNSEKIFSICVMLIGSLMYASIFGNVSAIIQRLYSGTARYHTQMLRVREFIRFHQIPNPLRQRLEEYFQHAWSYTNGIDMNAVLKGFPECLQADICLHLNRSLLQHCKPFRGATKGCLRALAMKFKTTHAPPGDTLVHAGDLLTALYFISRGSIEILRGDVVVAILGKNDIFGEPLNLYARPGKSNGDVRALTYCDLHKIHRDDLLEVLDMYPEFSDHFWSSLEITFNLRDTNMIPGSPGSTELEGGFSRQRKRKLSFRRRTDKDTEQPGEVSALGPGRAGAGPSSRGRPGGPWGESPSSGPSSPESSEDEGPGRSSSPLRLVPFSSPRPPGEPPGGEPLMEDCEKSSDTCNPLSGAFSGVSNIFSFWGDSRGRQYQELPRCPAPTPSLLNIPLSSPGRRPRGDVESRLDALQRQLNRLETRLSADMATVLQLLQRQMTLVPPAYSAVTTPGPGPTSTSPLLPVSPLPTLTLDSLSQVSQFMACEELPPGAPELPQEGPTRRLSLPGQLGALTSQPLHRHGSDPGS

SMILES | hERG current change (%, negative = inhibition) at 1uM
Cc1cc(-c2nc(C)c(-c3nnc(SCC(=O)Nc4ccc(Cl)cc4)n3C)s2)no1 | 12.5%
CNc1ncnc2sc(-c3ccccc3)cc12 | 6.33%
CCOc1ccc(-n2c(-c3ccccc3)c[n+]3c2CCC3)cc1.[Br-] | -7.27%
CCCCOc1ccc(C(=O)NCC(=O)N(C)CC(=O)Nc2ccc(N3CCOCC3)cc2)cc1 | 1.37%
CCCCCCSc1ncc(C#N)c(N)n1 | 7.43%
CC(=O)N1N=C(c2ccccc2O)CC1c1cccs1 (stereo not shown) | 6.78%
Cc1c(C(=O)N2CCOCC2)sc2ncnc(N3CCc4ccccc4C3)c12 | -3.64%
CCc1nn(CC(=O)NCCC2=CCCCC2)c(=O)c2cc3cc(F)ccc3n12 | 14.8%
COc1ccccc1NS(=O)(=O)c1ccc2c(c1)NC(=O)CC(=O)N2 | 16.1%
CC(=O)N(CN1C(=O)C2C3C=CC(C3)C2C1=O)c1cccc(Cl)c1 (stereo not shown) | 4.72%
COc1ccccc1C(=O)Nc1ccc(N2CCN(Cc3ccccc3)CC2)cc1 | 4.75%
Cc1cccc(NS(=O)(=O)c2cccc(C(=O)NCC3(N4CCCCC4)CCCCC3)c2)c1 | -45.1%
CCC(=O)Nc1cccc(NC(=S)NC(=O)c2ccc(C)cc2)c1 | 5.08%
Cc1ccccc1NC(=O)Cc1cn(C)c2ccccc12 | 14.1%
CNC(=O)c1cc(C)c(-c2ccccc2)s1 | -13.4%
COc1cc2nc(Cl)nc(N3CCOCC3)c2cc1OC | 4.94%
Nc1nonc1-n1nnc(C(=O)N/N=C/C2CCCCC2)c1-c1ccccc1 | 12.2%
CC(C)n1c(N)c(C#N)c2ccc([N+](=O)[O-])cc2c1=O | -6.91%
CN1CCc2nc(SCCOc3ccccc3)c(C#N)cc2C1 | -17%
COC(=O)c1ccc(CSc2nc3scc(-c4cccs4)c3c(=O)[nH]2)o1 | 11.2%
COC(=O)c1ccc(C(=O)N2CCCC(Nc3ccc(C(C)C)cc3)C2)nc1 (stereo not shown) | -2.04%
COc1ccccc1C(=O)NCCC(=O)N1CCN(S(=O)(=O)c2cccc(Cl)c2)CC1 | -3.23%

SMILES | hERG current change (%, negative = inhibition) at 1uM
CC(=O)N1c2ccc(S(=O)(=O)N(C)CC(=O)NC3CCCC3)cc2CC1C (stereo not shown) | 14.2%
COc1ccc(OCC(=O)Nc2ccc3c(c2)n(C)c(=O)n3C)cc1 | 6.3%
CC1CCCN(c2ccc(F)cc2N)C1.Cl (stereo not shown) | 3.89%
Cc1nc2c3ccccc3nc(NNC(=O)CCC(=O)N3CCN(c4ccccc4F)CC3)n2n1 | -2.37%
O=C(N/N=C/C1CC=CCC1)c1ccc(O)cc1O (stereo not shown) | 13%
COc1ccc(C(=O)Nc2ccc(O)c3c(=O)cc(-c4cccc(Cl)c4)oc23)cc1 | 7.05%
Cn1c(=O)c2c(nc(Sc3n[nH]c(N)n3)n2Cc2ccccc2Cl)n(C)c1=O | 12.2%
CC(=O)Nc1ccc(OS(=O)(=O)c2ccc(C(C)(C)C)cc2)cc1 | 13.3%
COC(=O)Nc1ccc(S(=O)(=O)N2CCCC(C(=O)Nc3cccnc3)C2)cc1 (stereo not shown) | 6.81%
CC1(C)CC(=O)c2cc(OCC(=O)O)ccc2O1 | 4.72%
CCN(CC)C(=O)c1ccc(NC(=O)COc2ccccc2F)cc1 | -4.33%
C=CCN(CC=C)S(=O)(=O)c1ccc(NC(=S)NC(=O)c2ccc(-c3ccccc3)cc2)cc1 | 9.01%
C=CCN(C(=O)c1csnn1)C(C(=O)NC1CCCCC1)c1ccc(C)cc1 (stereo not shown) | 9%
CC(C)(C)OC(=O)NCCCC[C@H](NC(=O)c1nc[nH]c1C(=O)NCC(=O)OCc1ccccc1)C(=O)OC(C)(C)C | -0.947%
Cc1ccc(-n2nnc(-c3ccnc4ccccc34)n2)cc1 | 9.68%
O=C(O)CNC(=O)c1ccccc1NC(=O)c1ccco1 | 5.8%
Cn1nnnc1SCc1ccc(C(=O)Nc2ccc(Br)cc2)cc1 | 14.3%
COC(=O)N/N=C(\C)c1ccc(OC(F)F)cc1 | 7.6%
COCCn1c(=O)[nH]c2cc(C(=O)N3CCN(c4cccc(C(F)(F)F)c4)CC3)ccc2c1=O | 5.42%
COC(=O)/C=C1/SC(=NC(=O)c2ccccc2)NC1=O | 3.08%
CCN[C@H]1CN(CCCOC)S(=O)(=O)c2sc(S(N)(=O)=O)cc21 | 7.28%
CCn1c(=O)c([N+](=O)[O-])c(NCCCn2ccnc2)c2ccccc21 | 11.2%

SMILES | hERG current change (%, negative = inhibition) at 1uM
CC(CCc1ccccc1)NC(=O)CCNS(=O)(=O)c1ccccc1 (stereo not shown) | 14.4%
O=C(NCc1ccccc1)c1nc(-c2cccs2)no1 | -3.84%
Cc1ccc(C(=O)NCCc2nnc(SCC(=O)Nc3nc(-c4ccccc4)cs3)n2C)cc1 | -0.384%
O=C(O)c1cccc(NS(=O)(=O)c2ccc3c4c(cccc24)C(=O)N3)c1 | 20.1%
O=C(NCc1ccco1)c1cc2c(s1)CSC2 | 2.37%
Cl.OCCNCCOc1ccc(Cl)c(Cl)c1 | 1.67%
O=C(O)C(=O)O.c1ccc(COc2ccc(OCCCN3CCCC3)cc2)cc1 | -39.1%
COCCCn1c(=O)/c(=C\c2ccc(OC(F)F)c(OC)c2)s/c1=C(/C#N)C(=O)NCCOC | 13.7%
COC(=O)c1sc2nc(CN3CCN(c4ccc(OC)cc4)CC3)[nH]c(=O)c2c1C | 12.9%
CN(C)C(=O)C1CCC(=O)N1Cc1cccs1 (stereo not shown) | 8.72%
CC1(C)C2C(Cl)(Cl)C2(C)c2ccccc2N1C=O (stereo not shown) | 8.72%
CC(C)c1ccccc1NC1=CC(=O)CC(C)(C)C1 | 11.9%
O=C(Cc1ccccc1)NCCc1c[nH]c2ccccc12.O=C(O)C(=O)O | 15.2%
CC1(OC(=O)C2CCCC2)C(=O)C=C2C=C(c3ccsc3)N(C3CCCC3)C=C2C1=O (stereo not shown) | -12%
Cc1cc(=O)oc2cc(OCC(=O)Nc3ccccc3C(=O)O)ccc12 | 11%
O=C(CSc1nnc(-c2ccoc2)o1)N1CCOCC1 | 3.43%
CCN(c1cccc(C)c1)C1C(=O)c2ccccc2N1C(C)=O (stereo not shown) | 13.6%
CC(C)(C)c1ccc(NC(=O)COC(=O)C2CCCC2)cc1 | 11.4%
c1coc(Cn2c(-c3ccco3)nc3ccccc32)c1 | -2.63%
Cc1cccc(N2CSC3=C(C#N)C(c4ccc(C)o4)CC(=O)N3C2)c1 (stereo not shown) | 8.62%
Cc1ccc(N(CC(=O)O)S(C)(=O)=O)cc1Cl | 11.1%
CC(C)(C)NS(=O)(=O)c1ccc(OCC(=O)NCCC2=CCCCC2)cc1 | -0.772%

SMILES | hERG current change (%, negative = inhibition) at 1uM
COC(=O)c1ccccc1NC(=S)N1CCN(c2ccccn2)CC1 | 9.29%
CCC(C)/C(C)=N/Nc1ccc(S(N)(=O)=O)cc1[N+](=O)[O-] (stereo not shown) | 3.58%
O=C(O)CC(NC(=O)C(F)(F)F)c1ccc2c(c1)OCO2 (stereo not shown) | 13.9%
Cc1ccc(NC(=O)c2ccc(F)cc2)cc1S(=O)(=O)N1CCCCCC1 | 4.07%
CCCCn1c(CNC(=O)C23CC4CC(CC(C4)C2)C3)nnc1SC(C)CC (stereo not shown) | 4.2%
FC(F)(F)c1cccc(-c2cc3ccccc3nc2N2CCCC2)c1 | 10.4%
O=C(CSc1nc2ncccc2[nH]1)NC1CCCCC1 | 15%
COc1ccccc1CC(=O)NCCN1CCCCC1 | 10.7%
O=C(NCCCN1CCOCC1)c1ccc(Sc2ccc(F)cc2)c([N+](=O)[O-])c1 | -8.71%
COc1ccc(Cl)cc1C(=O)NNC(=S)NC(=O)c1cc(-c2ccc(Cl)cc2)nc2ccccc12 | 5.94%
NC(=O)c1ccc(Nc2nnc(-c3ccc(O)cc3)c3ccccc23)cc1 | 11.5%
Cc1cc(C)cc(OCC(=O)Nc2ccccc2C(=O)N2CCOCC2)c1 | 10.7%
O=C(CCc1ccncc1)NC1CCCc2c1cnn2-c1cc(F)cc(F)c1 (stereo not shown) | -28.5%
CCOc1ccc(CCNC(=O)CN2C(=O)NC3(CCCCCC3)C2=O)cc1OCC | 10.8%
CCOCCCNC(=S)N1CCN(Cc2ccc3c(c2)OCO3)CC1.O=C(O)C(=O)O | 8.76%
O=C(Nc1cc(-c2nc3ccccc3s2)ccc1Cl)c1ccc2c(c1)OCO2 | 10.7%
CNc1cc(NS(=O)(=O)c2ccc(N)cc2)nc(NC)n1.Cl | -17.3%
COC(=O)C1=C(c2c(C)noc2C)C[C@@H]2CC[C@H]1N2C(=O)N1CCOCC1 | 8.64%
COc1ccc(C(CCN(Cc2ccc(OC)c(OC)c2)C(C)=O)c2ccccc2)cc1 (stereo not shown) | 2.9%
COCC(C)NC(=O)COc1ccc(Cl)cc1Cl (stereo not shown) | 14%
CCc1ccc(N2CC(C(=O)Nc3ccc(S(=O)(=O)Nc4nccs4)cc3)CC2=O)cc1 (stereo not shown) | 5.98%
COc1cccc(NC(=O)c2cc(CN3C(=O)c4ccccc4C3=O)ccc2OC)c1 | 5.82%
